# From PubChem BioAssay AID624296 (National Center for Advancing Translational Sciences (NCATS), 2012)
# In all, about 350,000 compounds went through this assay and about 9,900 (2.8%) were called active. This list was built around the results that the source calls inconclusive (neither active nor inactive); the mix of calls is not that of the screen. The call rests on the fitted dose curve; in most records, active means well fitted activation curve with a large enough effect; inconclusive means small, poorly fitted or top-dose-only effect; inactive means no such curve, though single readings can be large or run the other way. No potency is given beside an inconclusive call; the fits are too rough.
# Assay: A quantitative high throughput screen for small molecules that induce DNA re-replication in MCF 10a normal breast cells. Further: nearly all actives have a fitted effect of over 50% in size. On activity, positive = re-replication: % of control where 0% means no effect.
# Details: MCF 10A DNA re-replication, Hoechst nuclear intensity, 48 h; activity, positive = re-replication: at 46.1 µM (top of the series)
# Potency means the concentration at half of the fitted maximal effect; tags describe the fitted curve by direction and shape.
Compound,"activity, positive = re-replication",Potency
Nc1ccc2c(c1)C(=NO)c1cc([N+](=O)[O-])ccc1-2,inactive: 11%,–
COCCCNC(=S)N1CCN(c2nc(-c3ccccc3)cs2)CC1,–,active: 14.6 µM
Cc1cc(C)c2c(=O)n(CC(=O)N3CCC(N4CCCCC4)CC3)sc2n1,–,"inconclusive [activator, single point]"
O=C1Nc2ccccc2/C1=C/c1ccccc1F,–,"inconclusive [activator, single point]"
O=S(=O)(N/N=C1/CCCc2ccccc21)c1ccc(Br)cc1,–,"inconclusive [activator, partial curve, poor fit]"
COC(=O)[C@@]1(Cc2ccccc2)[C@@H]2C(=CC(=O)[C@H]2CC(=O)C(=O)N(C)C)CN1C(=O)c1ccccc1,–,active: 25.9 µM
c1ccc(-n2nnnc2Cc2nnnn2-c2ccccc2)cc1,inactive: 1.44%,–
O=C(Nc1ccc(-c2noc(CCc3ccccc3)n2)cc1)c1cccnc1,–,active: 16.4 µM
Cc1cccc(S(=O)(=O)Nc2nc3ccccc3nc2NCC2CCCO2)c1 (configuration not stated),inactive: -0.948%,–
Cc1cccc(Nc2cc(C)c3c(O)cccc3n2)c1C,–,"inconclusive [activator, partial curve, poor fit]"
CCCc1[nH]nc2c1C(c1ccc(OC)c(Cn3nc(C)c(Br)c3C)c1)C(C#N)=C(N)O2 (configuration not stated),–,"inconclusive [activator, single point]"
COc1cc(Cl)c(C)cc1NC(C)C(=O)Nc1cc(C(F)(F)F)ccc1N1CCOCC1 (configuration not stated),–,"inconclusive [activator, single point]"
CC(C)N(C(=O)[C@H]1CC(CC(=O)NC(C)(C)C)C(=O)N2CCc3c([nH]c4ccccc34)[C@]12C)C(C)C (some centres not stated),inactive: 14.5%,–
COC(=O)c1sccc1NC(=O)CSc1ccccc1NS(=O)(=O)c1ccc(Br)cc1,inactive: 18.3%,–
C#CCOCCOCCOCCNc1nc(N2CCN(C(=O)[C@H](CCCN=C(N)N)n3cc(C(N)[C@@H](C)CC)nn3)CC2)nc(N2CCN(C(=O)[C@H](CCC(=O)O)n3cc([C@@H](N)CC(N)=O)nn3)CC2)n1 (some centres not stated),–,"inconclusive [activator, partial curve, poor fit]"
COCCNC(=O)/C(C#N)=C/c1ccc(-c2ccc(OC)cc2[N+](=O)[O-])o1,–,"inconclusive [activator, single point]"
CC(NC(=O)c1cccnc1)C(c1cccs1)N1CCN(C)CC1 (configuration not stated),inactive: 17.2%,–
Cc1cccc(C(=O)OCC(=O)c2ccc(CC(=O)N3CCOCC3)s2)c1C,inactive: 5.18%,–
Cc1nc2c(Cl)cccc2[nH]1,inactive: -6.46%,–
CCOc1cnc(-c2c(-c3c(Cl)cccc3Cl)noc2C)o1,–,"inconclusive [activator, partial curve, poor fit]"
CCCNc1ncnc2c1cnn2C1CCCCO1 (configuration not stated),inactive: -1.52%,–
O=C(Nc1cc(S(=O)(=O)N2CCOCC2)ccc1N1CCCC1)C1COc2ccccc2O1 (configuration not stated),inactive: 2.52%,–
Cc1ccc(OCC(=O)N/N=C\c2c(C)n(C)c3ccccc23)c([N+](=O)[O-])c1,–,"inconclusive [activator, single point]"

Compound,"activity, positive = re-replication",Potency
Cc1cccc(N/N=C/c2ccccc2O)c1,–,"inconclusive [activator, single point]"
COc1ccc(NC(=O)CSc2nnc(C3CC3)n2-c2ccccc2)cc1,–,"inconclusive [activator, single point]"
COc1ccc(Cl)cc1-n1c(N)c(C(N)=O)sc1=S,inactive: 3.54%,–
COc1ccc(-c2cc(-c3cccs3)c(C#N)c(SCC(=O)NCc3ccccc3OC)n2)cc1,–,"inconclusive [activator, full curve]"
CCc1ccccc1N(C(=O)c1snc(C(N)=O)c1N)C(C(=O)NCC1CCCO1)c1c[nH]c2ccccc12 (configuration not stated),–,"inconclusive [activator, single point]"
CCOC(=O)c1c(-c2ccccc2Cl)csc1NC(=O)CSc1nc(C)cc(=O)[nH]1,–,"inconclusive [activator, partial curve, poor fit]"
O=C1Nc2cc(C(=O)NCCCN3CCCC3)ccc2S/C1=C/c1ccccc1F,–,"inconclusive [activator, single point]"
CCCOc1ccccc1N/C(=N/c1nc(C)cc(C)n1)NC(=O)COc1ccc(OC)cc1,–,"inconclusive [activator, partial curve, poor fit]"
Nc1nc(N)nc(-c2ccc([N+](=O)[O-])o2)n1,–,"inconclusive [activator, single point]"
O=C(c1ccc(S(=O)(=O)N2CCOCC2)cc1)N1CCN(S(=O)(=O)c2ccc(Cl)s2)CC1,–,"inconclusive [activator, partial curve, poor fit]"
CCOC(=O)c1sc(NC(=O)CSc2nc3c(cc2C#N)CCCCC3)c(C#N)c1C,–,"inconclusive [activator, full curve]"
CCC(C)Nc1nc(N)c([N+](=O)[O-])c(Nc2ccccc2OC)n1 (configuration not stated),–,"inconclusive [activator, partial curve, poor fit]"
Nc1cc2c(cc1C(=O)c1ccccc1)OCCO2,inactive: 16.3%,–
CN(C)CCCN(C(=O)CCOc1ccccc1)c1nc2c(F)cccc2s1,–,"inconclusive [activator, single point]"
NNc1nc2c(Cl)cccc2s1,–,active: 16.4 µM
COCCC(=O)N1CCCC(C(=O)c2ccc(C(F)(F)F)cc2)C1 (configuration not stated),inactive: -10.9%,–
CC(COc1ccccc1)N1CCC(CO)(CCc2ccccc2)CC1 (configuration not stated),–,"inconclusive [activator, partial curve, poor fit]"
O=c1cc(Cl)c(-c2ccccc2)nn1Cc1ccc(Cl)cc1,–,"inconclusive [activator, single point]"
O=S(=O)(NCCc1ccncc1)c1ccc(S(=O)(=O)N2CCCCCC2)cc1,–,"inconclusive [activator, single point]"
COc1ccc(-c2cnc(N)n2CC2CCCO2)cc1 (configuration not stated),–,"inconclusive [activator, single point]"
CC(=O)c1ccc(N2CCN(C(=O)CCS(=O)(=O)c3ccc4c(c3)NC(=O)CS4)CC2)cc1,inactive: -1.1%,–
CCC(C)(C)n1nnnc1C(c1cc2ccc(OC)cc2[nH]c1=O)N1CCc2ccccc21 (configuration not stated),–,"inconclusive [activator, partial curve, poor fit]"
CN(C(=O)COc1ccc(Oc2ccccc2)cc1)C1CCS(=O)(=O)C1 (configuration not stated),inactive: 14%,–

Compound,"activity, positive = re-replication",Potency
CCOC(=O)C1CCCc2c1[nH]c1c(C(=O)O)cccc21 (configuration not stated),–,"inconclusive [activator, full curve, poor fit]"
Cc1ccc(Sc2ccc([N+](=O)[O-])cc2[N+](=O)[O-])nc1,–,"inconclusive [activator, single point]"
CCN(C[C@H]1N[C@@](Cc2ccccc2)(C(=O)OC)[C@H]2C(=O)N(Cc3ccccc3)C(=O)[C@@H]12)S(=O)(=O)c1ccccc1,–,"inconclusive [activator, single point]"
CCc1cccc2c(/C=N/NC(=O)c3cccc(S(=O)(=O)Nc4ccccc4Cl)c3)c[nH]c12,–,"inconclusive [activator, single point]"
Cc1nn(-c2ccccc2)c2ncc(C(=O)c3cc(Cl)ccc3O)cc12,–,"inconclusive [activator, partial curve, poor fit]"
CN(c1ccccc1)S(=O)(=O)c1cccc(C(=O)OCC(=O)NCc2ccco2)c1,–,"inconclusive [activator, single point]"
O=C(NCc1ccccc1)c1ccc(/C=N/O)nc1,inactive: 5.22%,–
Cc1cc(C)c(S(=O)(=O)N2CCN(C(=O)c3ccccc3OCc3c(C)noc3C)CC2)c(C)c1,inactive: 10.3%,–
CCOCCCNC(=S)N(CCN(CC)CC)Cc1cc2cc3c(cc2[nH]c1=O)OCCO3,–,"inconclusive [activator, full curve, poor fit]"
CCCCn1c(N)c(N(CCOC)C(=O)CN(C)CC(=O)Nc2ccc(Cl)c(Cl)c2)c(=O)[nH]c1=O,inactive: 2.68%,–
COc1ccc(/C=N/Nc2cn[nH]c(=O)c2Cl)cc1,–,"inconclusive [activator, partial curve, poor fit]"
O=S(=O)(c1ccccc1)c1cnn2c(C(F)(F)F)cc(-c3ccccc3)nc12,–,"inconclusive [activator, full curve]"
CN(Cc1ccccc1)C(=O)C1CCCN(Cc2ccc(Cl)cc2)C1 (configuration not stated),–,"inconclusive [activator, partial curve, poor fit]"
COc1ccccc1N1CCN(C(=O)c2ccc(CSc3ccccc3)cc2)CC1,–,"inconclusive [activator, partial curve]"
CC1CC(=O)N(C)c2ccc([N+](=O)[O-])cc2N1 (configuration not stated),inactive: 7.71%,–
CC(=O)c1c(C)[nH]c(C(=O)COC(=O)CCOc2ccc(C)cc2)c1C,–,"inconclusive [activator, single point]"
COc1ccc(-n2c(SCCNCCO)nc3sc4c(c3c2=O)CCCC4)cc1,–,"inconclusive [activator, partial curve, poor fit]"
COc1cc(/C=C/C(=O)OCC(=O)Nc2c(C)n(C)n(-c3ccccc3)c2=O)ccc1O,inactive: 0.255%,–
O=S(=O)(/N=C(\Sc1ccccc1)c1ccccc1)c1ccc(Cl)cc1,inactive: -4.72%,–
O=C(COC(=O)Cc1ccc(Cl)cc1)Nc1c(F)cccc1F,inactive: -0.543%,–
CN1CCN(C(=O)CSc2nc(-c3cccs3)cc(-c3cccs3)c2C#N)CC1,–,active: 20.6 µM
